Each structure is given as a SMILES string. This is one part of the list.

The experiment relates to T1, C. trachomatis L2/434/Bu expressing GFP (CTL2-GFP).
T1 construct: L2/434/Bu GFP intracellular growth in HeLa cells
Details: species or system HeLa; C. trachomatis total inclusion area by high-content imaging, normalised to DMSO. As to conditions: total inclusion area; 28.5 h, 10 µM; inhibitor. The essentials: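 Post-fluorescence-read fixation, DNA staining with Hoechst and high-content imaging; GFP inclusion area and number per well, and nuclei counts, used as proxies for bacterial growth and host viability.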
On to `O=C(C[C@@H]1CCNC[C@@H]1Cc1cc(-c2ccc(F)cc2)on1)Nc1ccccc1` [CBK288801], for which the “% of control remaining” value is 93.2106. Regarding `Cc1cnc(CNC(=O)c2ccc3nc[nH]c3c2)cn1` [CBK153318], the “% of control remaining” value was 107.794. The figure for `Cc1cc(C(=O)NCc2ccccc2)n[nH]1` [CBK200198] is 119.664; for `NS(=O)(=O)c1ccc(CCNc2ncnc3c2c(-c2ccccc2)cn3-c2ccc(F)cc2)cc1` [CBK266478] it is 74.4933. With `Cc1ccc(C2(O)CCN(CCNC(=O)C3CCCCC3)CC2)cc1` [CBK283323], the “% of control remaining” value is given as 78.3197. `Cc1cc(N2C(=O)NS(=O)(=O)c3cccnc32)ccc1F` [CBK288461]: the “% of control remaining” value is recorded as 68.6324. The figure for `COc1cc(/C=N/NC(=O)c2cccc([N+](=O)[O-])c2)cc(OC)c1O` [CBK262172] is 92.9641; for `c1cncc(COc2ccnc(N3CCCN(Cc4ccc5c(c4)OCO5)CC3)n2)c1` [CBK084112] it is 87.0381; for `COc1ccc(S(=O)(=O)Nc2ccccc2C(=O)Nc2ccc(F)cc2)cc1OC` [CBK045404] it is 91.5814.

`CN1CCc2c(sc3ncn4nc(-c5ccncc5)nc4c23)C1` [CBK288540]: the “% of control remaining” value is listed as 94.3233. For `COCCNCCOc1c(Cl)cc(C)cc1Br` [CBK265087G], the “% of control remaining” value stood at 98.2357.

On to `Nc1cccc(Sc2ccc(C(F)(F)F)cn2)c1` [CBK089606], for which the “% of control remaining” value is 79.7387. `O=S(=O)(CCSc1nc2ccccc2s1)c1nc2ccccc2s1` [CBK026908]: the “% of control remaining” value was 62.2639.

`COc1ccc([C@@]23CC[C@@H](NC(=O)Nc4ccc(Cl)cc4[N+](=O)[O-])C[C@@H]2N(C)CC3)cc1OC` [CBK036474T]: the “% of control remaining” value is listed as 86.9475.

As to `O=C(C[C@@H]1O[C@H](CNCc2cccc(Cl)c2)[C@@H](O)[C@H]1O)N1CCCC1` [CBK288914], the “% of control remaining” value was found to be 79.8631.

`Cc1ccc(C(=O)N2CCC(c3n[nH]c4ncccc34)CC2)s1` [CBK284911]: the “% of control remaining” value is reported as 104.42.

Consider `Cc1nc(-c2ccccc2)sc1CNC(=O)CCc1c[nH]c2ccccc12` [CBK092373], for which the “% of control remaining” value is listed as 77.6103. With `Cc1ccccc1OCc1nnc(SCC(=O)NC2CCCCC2)n1C` [CBK265817], the “% of control remaining” value is on record as 68.9833. `O=C(Nc1nccs1)c1ccc2[nH]ccc2c1` [CBK161731]: the “% of control remaining” value stood at 101.945. Turning to `CCc1nc2c(OCCC3CCCCC3)cccn2c1N(C)C(=O)CC(C)C` [CBK147671], the “% of control remaining” value was found to be 85.4028. With `NCCNc1ccc(C(=O)Nc2cccc(Cl)c2)cc1[N+](=O)[O-]` [CBK263953], the “% of control remaining” value worked out at 77.7468. The figure for `COc1ccc(S(=O)(=O)N2CCC(C(=O)O)(c3ccccc3)CC2)cc1` [CBK267572] is 90.4448; for `CCN1C(=O)C2(CC(=O)N(Cc3ccc(OC)c(OC)c3)C2=O)c2cc(C)ccc21` (stereo not drawn) [CBK075172] it is 95.731; for `CCc1nn2c(O)cc(C)nc2c1-c1cccs1` [CBK283860] it is 101.425. For `O=C(O)CCC(=O)N1CCN(Cc2ccc(Cl)cc2)CC1` [CBK286852], the “% of control remaining” value came to 65.9138. The figure for `CC(CCc1ccccc1)NC1CCCc2c1[nH]c1ccc([N+](=O)[O-])cc21` (stereo not drawn) [CBK262875] is 25.0482; for `CCCCSc1nc(N)cc(N2CCOCC(CN(C)C)C2)n1` (stereo not drawn) [CBK306659] it is 23.2121; for `Cc1cc(Cc2ccccc2Cl)cc(C2CCCN(CC(=O)N(C)C)C2)n1` (stereo not drawn) [CBK286262] it is 82.405. For `COc1ccc2[nH]nc(CN3CCCC(c4cc(O)nc(C)n4)C3)c2c1` (stereo not drawn) [CBK306703], the “% of control remaining” value is 84.4461. As to `N#CC(c1ccc(O)cc1)N1CCCCC1` (stereo not drawn) [CBK028556], the “% of control remaining” value worked out at 112.191. With `COc1cc(-c2nccnc2NCc2ccccn2)cc(OC)c1OC` [CBK036936], the “% of control remaining” value is listed as 72.7874. For `COc1cc(CN2CCN(C/C=C/c3ccccc3)CC2)c([N+](=O)[O-])cc1OC` [CBK261550], the “% of control remaining” value is 101.185. As for `CC1CC(C)CN(C(=O)NCCCCCC(=O)O)C1` (stereo not drawn) [CBK286793], the “% of control remaining” value amounted to 107.264. On to `COc1ccc(-c2cnc3[nH]c(=O)n([C@@H](CO)C(C)C)c3n2)c(OC)c1OC` [CBK064774], for which the “% of control remaining” value was 94.394. Regarding `O=C(Nc1cccc(C(=O)O)c1)/C(=C\c1ccc2c(c1)OCO2)NC(=O)c1ccc(Br)o1` [CBK263720], the “% of control remaining” value is on record as 118.67. Turning to `O=C(Nc1cccc(C(F)(F)F)c1)c1c(O)c2ccccc2[nH]c1=O` [CBK159985], the “% of control remaining” value was 54.4913.

For the molecule `CCc1nc(CN2CCCC(NCc3cccc(C(N)=O)c3)C2)no1` (stereo not drawn) [CBK306254], the “% of control remaining” value was determined as 26.7452. Then `O=C(C1=C(O)C(=O)N(Cc2cccnc2)C1c1cccc([N+](=O)[O-])c1)c1ccccc1` (stereo not drawn) [CBK263383], with 99.1048. As to `CC(=O)N1N=C(c2cccnc2)OC1(C)C` [CBK023619], the “% of control remaining” value stood at 98.4322. For `Cc1nc(CC(=O)N2[C@H]3CCCCCN(C)[C@@]3(C)C[C@H]2c2ccccc2)cs1` [CBK286104], the “% of control remaining” value was found to be 96.1525. `Cc1cccc(-c2ncc(C(=O)NCCc3c[nH]cn3)cc2-c2ccncc2)c1` [CBK036678]: the “% of control remaining” value turned out to be 83.908. As for `CC1CCCN(Cc2c(C3CCNCC3)[nH]c3ncccc23)C1` (stereo not drawn) [CBK285078], the “% of control remaining” value is 78.5883.

Take `Cn1cc(C(=O)N2CCc3ccccc3C2)c2ccccc21` [CBK200338]: the “% of control remaining” value came out at 87.872.

Turning to `O=C(CN1CCC(c2ccncc2)CC1)N1CCCCC1` [CBK283504], the “% of control remaining” value was determined as 95.7931. For `O=C(NC1CCN(CC(F)(F)F)CC1)c1cnc(-c2ccccc2)s1` [CBK305474], the “% of control remaining” value came out at 88.8598. In the case of `CN(C)CCNC(=O)c1ccc(-c2cnc3[nH]c(=O)n(CC4CC4)c3n2)cc1` [CBK064578], the “% of control remaining” value is listed as 123.28. `COc1ccc(-n2nc(N)c3c(=O)oc(N(C)C)nc32)cc1` [CBK007445]: the “% of control remaining” value worked out at 124.29. As to `Cc1cc(C(=O)Nc2ccc(-c3nc4ccccc4s3)c(O)c2)ccc1[N+](=O)[O-]` [CBK262820], the “% of control remaining” value was 84.0205.

As for `CC1CCCCN1Cc1nc2c(c(=O)n(C)c(=O)n2C)n1CCCc1ccccc1` (stereo not drawn) [CBK269326], the “% of control remaining” value worked out at 106.419. Take `S=c1cc(SCc2ccccc2Cl)nc[nH]1` [CBK288496]: the “% of control remaining” value is reported as 88.739. `CC(C)(c1ccc(Oc2ccc3c(c2)C(=O)N(c2nccs2)C3=O)cc1)c1ccc(Oc2ccc3c(c2)C(=O)N(c2nccs2)C3=O)cc1` [CBK262258]: the “% of control remaining” value came out at 116.995. Regarding `COCC(C)NC(=O)c1cc(-c2cccs2)nc2onc(C)c12` (stereo not drawn) [CBK306473], the “% of control remaining” value was 41.7565. In the case of `O=C(O)c1sc2c(ccc3ccccc32)c1Br` [CBK018387], the “% of control remaining” value was 70.854. The figure for `Cc1c(NC(=O)CN(c2ccccc2)S(=O)(=O)N(C)C)cccc1[N+](=O)[O-]` [CBK269012] is 85.2365. In the case of `Cc1ccccc1-c1cc(=O)[nH]c(Nc2ccccc2)n1` [CBK288142], the “% of control remaining” value stood at 57.5541. Regarding `O=C(O)CC(=Cc1csc(-c2ccc(Cl)cc2)n1)c1nc2ccccc2o1` [CBK297112], the “% of control remaining” value stood at 90.579. Consider `COc1cccc(CC(=O)N2CCOc3ncccc32)c1` [CBK305235], for which the “% of control remaining” value is listed as 117.796. For `CC1CCCC(C)N1S(=O)(=O)c1ccc(NC(=O)CCn2cnc3ccccc3c2=O)cc1` (stereo not drawn) [CBK267643], the “% of control remaining” value was found to be 118.355.

Take `Cc1ccc(C)c(Oc2coc3cc(OCC(=O)Nc4ccccc4C(C)C)ccc3c2=O)c1` [CBK265906]: the “% of control remaining” value is given as 127.431.

In the case of `CNC(=O)c1sc2ccccc2c1C1CCN(Cc2nc3ccccc3n2C(C)C)C1` (stereo not drawn) [CBK285929], the “% of control remaining” value is recorded as 95.3864.

Take `Cc1ccc2oc(-c3cccc(NC(=O)c4ccc(-c5ccc([N+](=O)[O-])cc5)o4)c3C)nc2c1` [CBK263437]: the “% of control remaining” value stood at 112.222.

Turning to `CC(=O)Nc1ccc(CN(CCO)C2CCc3ccccc32)cc1` (stereo not drawn) [CBK304104], the “% of control remaining” value turned out to be 41.1354.

As for `Cc1cccc(NC2=NC(=O)/C(=C\c3ccc(Cl)cc3)S2)c1C` [CBK263619], the “% of control remaining” value is recorded as 85.1253. With `Cc1ccccc1OC(C)C(=O)NCCCc1ccccc1` (stereo not drawn) [CBK268571], the “% of control remaining” value was determined as 113.143. For `COc1cc(/C=N/NC(=O)c2ccccn2)ccc1OC(=O)c1cccc2ccccc12` [CBK262110], the “% of control remaining” value is 113.088. The figure for `O=C(c1ccc(F)cc1)C1CCN(C/C=C/c2ccccc2)CC1` [CBK149124] is 93.1557; for `CCc1ccc(CNC(=O)Cn2cc(-c3ccc(CN4CCC(CO)CC4)cc3)nn2)cc1` [CBK167551] it is 45.4106. For the molecule `O=C(CN(c1ccc(Cl)cc1)S(=O)(=O)c1ccccc1)Nc1ccc(F)cc1` [CBK264013], the “% of control remaining” value amounted to 105.808. Then `CCOC(=O)c1csc(C2CCCN2C(=O)CC2C=CCCC2)n1` (stereo not drawn) [CBK305407], with 54.6621; and `CCN(CC)C(=O)Cn1c(=O)n(Cc2ccco2)c2ncccc21` [CBK284016], with 99.4817; and `COCCNc1nccnc1-c1ccsc1` [CBK038008], with 96.3472. Then `COc1ccc(CC(CC(=O)O)C(=O)Nc2ccc(OC)cc2)cc1` (stereo not drawn) [CBK286975], with 101.344; and `CCN(CC)C(=O)C1CCCN(C(=O)NCCCN2CCN(C)CC2)C1` (stereo not drawn) [CBK156115], with 89.7525. In the case of `O=C1c2ccc(Oc3cccc(Oc4ccc5c(c4)C(=O)N(c4ccccn4)C5=O)c3)cc2C(=O)N1c1ccccn1` [CBK261397], the “% of control remaining” value is recorded as 99.8525. As to `O=C(N1CCCCCC1)N1CCN(S(=O)(=O)N2CCOCC2)CC1` [CBK268681], the “% of control remaining” value came out at 108.683. Turning to `Cc1ccc(NC(=O)COc2ccccc2)c(NC(=O)c2ccccc2I)c1` [CBK266793], the “% of control remaining” value turned out to be 93.2609. The figure for `O=C(c1cc2ncc(Br)cn2n1)N1CCOCC1` [CBK058513] is 69.9165; for `COCCCOc1nccnc1NC(C)C` [CBK115876] it is 117.762.
